Test results published in the RNAGym collection of RNA variant scans (doi:10.1093/nar/gkz1192).
Read counts are not given, so values of variants with three or more changes are uncertain.

B1: CPEB3 Ribozyme (parent)
chain: UAACAGGGGGCCACAGCAGAAGCGUUCACGUCGCAGCCCCUGUCAGAUUCUGGUGAAUCUGCGAAUUCUGCUGUAUAUCUC

Variants of: B1
Test: self-cleavage, relative activity (ratio to wild type); higher = more cleavage; in vitro, sequencing
Method in brief: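 Libraries of CPEB3 self-cleaving ribozyme mutants came from rounds of error-prone PCR and carried barcodes, which DNA sequencing matched to variants. In vitro transcription used T7 RNA polymerase at 37°C for 5 hours, with a further 15 min in DNase I before EDTA stopped the reaction; the ribozymes cleaved during both steps. The RNA was reverse transcribed with template switching and sequenced on Illumina. Relative activity is the cleaved/total read fraction of a variant divided by that of the unmutated ribozyme, averaged over three batches with at least 5 reads.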

Q: For UAACAGGGGGCCUCAGCAGAGGCGUUCACAUCGCAGCCCCUGUCAGAUUCUGGUGGAUCUGCGAAUUCUGCUGCAUAUCUC, which self-cleavage is on record?
A: 0.16

Q: With UAACAGGGGGCCUCAGCAGAAGCGUUCUCGUCGCAGCCCCAGUCAGAUUCUGGUGAAUCUGCGAAUUCUGCUGUAUAUCUC as the variant, how does the self-cleavage read?
A: 0.2

Q: Which self-cleavage does the source give for UAACAGGGGGCCUCAGCAGAAGCGUUCUCGUCGCAGCCCCCGUCAGAUUCUGGUGAAUCUGCGAAUUCUGCUGUAUAUCUC here?
A: 0.64

Q: With UAACAGGGGGCCUCAGCAGAAGCGUUCUCGUCGCAGCCCCUGUCAGAUUCUGGCGAAUCUGCGAAUUCUGCUGUGUAUCUC as the variant, how does the self-cleavage read?
A: 0.93

Q: Which self-cleavage does the source give for UAACAGGGGGCCUCAGCAGUAGCGUUCACGUCGCAGCCCCUGUCAGAUCCUGGUGAAUCUGCGAAUUCUGGUGUAUAUCUC here?
A: 0.06

Q: For UAACAGGGGGCCUCAGCAGGAGCGUUCACGUCGCAGCCCCUGUCAGAUUCUGGUGAAUCUGCGAAUGCUGCUGUAUAUCUC, which self-cleavage is on record?
A: 0.25

Q: For UAACAGGGGGCCUCAGCAGAAGCGUUCGCGUCGCAGCCCCUGACAGACUCUGGUGAAUCUGCGAAUUCUGCUGUAUAUCGA, which self-cleavage is on record?
A: 0.25

Q: Which self-cleavage does the source give for UAACAGGGGGCCUCAGCAGAAGCGUUCUCGUCGCAGCCCCUGCCAGAUUCUGGUGAACCUGCGAAUUCUGCUGUAUAUCCC here?
A: 0.08

Q: Which self-cleavage does the source give for UAACAGGGGGCCUCAGCAGAAGCGUUCACGUCGCGGCCCCUGUCAGAUUCUGGGGAAUCUGCGAGUUCUACUGUAUAUCUC here?
A: 0.5

Q: Which self-cleavage does the source give for UAACAGGGGGCCUCAGCAGAAGCGUUCUCGACGCAGCCCCUGUCAGAUUCUGGUGAAUCUGCGAAUUCCGCUGUAUAUCUC here?
A: 0.14

Q: Which self-cleavage does the source give for UAACAGGGGGCCUCAGCAGUAGCGUUCACGUCGCAGCCCCUGCCAGAUUCUGGUGAAUCUGCGAGUUCUGCUGUAUAUCUC here?
A: 0.33

Q: With UAACAGGGGGCCUCAGCAGAGGCGUUCACGUCGCAGCCCCUGUCAGAUUCUGGUGAUUCUGCGAAUUCUGCUGUAUAUCUC as the variant, how does the self-cleavage read?
A: 0.13

Q: With UAACAGGGGGCCUCAGCAGGAGCGUUCACGUCGCAGCCCCUGUCAGAUUCUGGUGAAUCUGCGAAUUCUGCUGUAUAUCCC as the variant, how does the self-cleavage read?
A: 1.25

Q: For UAACAGGGGGCCUCAGCAGUAGCGUUCACGUCGCAGCCCCUGUCAGAUUCUGGUGAAUCUGCGAAUUCUGCCGUAUAUCAC, which self-cleavage is on record?
A: 0.34

Q: Which self-cleavage does the source give for UAACAGGGGGCCUCAGCAGAAGCGUUCUCGUCGCAGCCCCUGUCAGAUUCUGGUGAAUCUGCAAAUUCUGCUGUAUAUCUC here?
A: 0.76

Q: For UAACAGGGGGCCUCAGCAGGAGCGUUCACGUCGCAGCCCCAGUCAGAUUCUGGUGAAUCUGCGAAUUCUGCUGUGUAUCUC, which self-cleavage is on record?
A: 0.07

Q: Which self-cleavage does the source give for UAACAGGGGGCCUCAGCAGAAGCGUUCUCGUCGCAGCCCCUGUCAGACUCUGGUGAAUCUGCGAAUCCUGCUGUAUUUCUC here?
A: 0.16

Q: With UAACAGGGGGCCUCAGCAGAGGCGUUCACUUCGCAGCCCCUGUCAGAUUCUGGUGAAUCUGCGAAUUCUGCUGUAUAUCUC as the variant, how does the self-cleavage read?
A: 0.09

Q: Which self-cleavage does the source give for UAACAGGGGGCCUCAGCAGAAGCGUUCUCGUCGCAGCCCCUGUUAGAUUCAGGUGAAUCUGCGAAUUCUGCUGUAUAUCUC here?
A: 0.16

Q: With UAACAGGGGGCCUCAGCAGGAGCGUUCACGUCGCAGCCACUGUCUGAUUCUAGCGAAUCUGUGAAUUCUGCUGUAUAUCUC as the variant, how does the self-cleavage read?
A: 0.06

Q: For UAACAGGGGGCCUCAGCAGUAGCGUUCACGUCGCAGCCCCUGUCGGAUUCUGGUGAAUCUGCGGAUUCUGCUGUAUAUCUC, which self-cleavage is on record?
A: 0.11

Q: With UAACAGGGGGCCUCAGCAGAGGCGUUCACGUCGCAGCCCCUGUCAGGUUCAGGUGAAUCUGCGAAUUCUGCUGUAUAUCUC as the variant, how does the self-cleavage read?
A: 0.35

Q: Which self-cleavage does the source give for UAACAGGGGGCCUCAGCAGAUGCGUUCACGUCGCAGCCCCUGCCAGAUUCUGGUGAAUCUGCGCAUUCUGCUGUAUAUCCC here?
A: 0.08

Q: Which self-cleavage does the source give for UAACAGGGGGCCUCAGCAGGAGCGUACACGUCGCAGCCCCUGUCAGAUUCUGGUGAAUCUGCGAAUUCUGCUGUAUAUCUC here?
A: 0.92

Q: With UAACAGGGGGCCUCAGCAGAUGCGUUCACGUCGCAGCCCCCGUCAGAUUCCGGUGAAUCUGCGAAUGCUGCAGUAUAUCUC as the variant, how does the self-cleavage read?
A: 0.06

Q: For UAACAGGGGGCCUCAGCAGGAGCAUUCACGUCGCAGCCCCUGUCAGAUUCUGGUGAAUCUGCGAAUUCUGCUGUAUAACUC, which self-cleavage is on record?
A: 0.08

Q: With UAACAGGGGGCCUCAGCAGAAGCGUUCGCGACGCAGCCCCUGUCAGAUUCUGGUGAAUCUGCGAAUUCUGCUGUAUAUCUC as the variant, how does the self-cleavage read?
A: 0.39

Q: For UAACAGGGGGCCUCAGCAGUAGCGUUCACGUCGCAGCCCCUGUCUGAUUCUGGUGAAUCUGCGAAUUCUGCUGUAUAUCUC, which self-cleavage is on record?
A: 0.5

Q: For UAACAGGGGGCCUCAGCAGAGGCGUUCACGUCUCAGCCCCUGUCAGACUCUGGUGUACGUGCGAAUUCUGCUGUAUAUCUC, which self-cleavage is on record?
A: 0.02

Q: For UAACAGGGGGCCUCAGCAGAAGCGUUCGCGUCGCAGCCCCCGUCAGAUUCUGGUGAACCUGCGAAUUCUGCUGUAUAUCUC, which self-cleavage is on record?
A: 0.29

Q: Which self-cleavage does the source give for UAACAGGGGGCCUCAGCAGAAGCGUUCCCGCCGCAGCCCCUGUCAGAUUCUGGUGAAUCUGCGAAUUCUGCUGUAUAUCUC here?
A: 0.43

Q: Which self-cleavage does the source give for UAACAGGGGGCCUCAGCAGAAGCGUUCACGUCGCUGCCCCUGUCAGAAUCUGGUGAAUUUGCGAGUUCUGCUGUAUAUCCC here?
A: 0.06

Q: For UAACAGGGGGCCUCAGCAGAAGCGUUCACGUCGCAGCCCCUGUCGGAUUCAGGUGAACCUGCGAAUUCUGCUGUAUAUCUC, which self-cleavage is on record?
A: 0.2

Q: For UAACAGGGGGCCUCAGCAGAAGCGUUCGCGUCGCAGCCCCUGUCAGAUUCUGGUGAAUCUGUGAGUUCUGCCGUAUAUCAC, which self-cleavage is on record?
A: 0.08
